No constants are given. Whether binding was seen depends on the method and setting. Binding seen in cells or lysates may run through a third protein. Some entries that bind do so weakly or less than the wild type.
How the values were obtained:
Test in all cases: co-IP
[1] = molecular target: FLAG-tagged PB1 derived from influenza A/Puerto Rico/8/1934 (PR8) (influenza A virus A/Puerto Rico/8/1934 (H1N1)) (UniProt P03431)
[2] = molecular target: C-terminal PB1 fragment (residues 493-757), PR8, fused with FLAG epitope (influenza A virus A/Puerto Rico/8/1934 (H1N1)) (UniProt P03431)
[3] = molecular target: PR8 derived FLAG-tagged NP (influenza A virus A/Puerto Rico/8/1934 (H1N1)) (UniProt P03466)
[4] = molecular target: FLAG-tagged PB1 from WSN, A/WSN/1933 (H1N1) (influenza A virus A/WSN/1933 (H1N1)) (UniProt P03430)
[5] = molecular target: viral PB1 (PR8 IAV infection) (influenza A virus A/Puerto Rico/8/1934 (H1N1)) (UniProt P03431)

The chains behind the UniProt entries cited, without tags or fusion partners. Where a name states a change or a piece, a line headed by the entry shows the natural chain unless it says otherwise.
UniProt P03431: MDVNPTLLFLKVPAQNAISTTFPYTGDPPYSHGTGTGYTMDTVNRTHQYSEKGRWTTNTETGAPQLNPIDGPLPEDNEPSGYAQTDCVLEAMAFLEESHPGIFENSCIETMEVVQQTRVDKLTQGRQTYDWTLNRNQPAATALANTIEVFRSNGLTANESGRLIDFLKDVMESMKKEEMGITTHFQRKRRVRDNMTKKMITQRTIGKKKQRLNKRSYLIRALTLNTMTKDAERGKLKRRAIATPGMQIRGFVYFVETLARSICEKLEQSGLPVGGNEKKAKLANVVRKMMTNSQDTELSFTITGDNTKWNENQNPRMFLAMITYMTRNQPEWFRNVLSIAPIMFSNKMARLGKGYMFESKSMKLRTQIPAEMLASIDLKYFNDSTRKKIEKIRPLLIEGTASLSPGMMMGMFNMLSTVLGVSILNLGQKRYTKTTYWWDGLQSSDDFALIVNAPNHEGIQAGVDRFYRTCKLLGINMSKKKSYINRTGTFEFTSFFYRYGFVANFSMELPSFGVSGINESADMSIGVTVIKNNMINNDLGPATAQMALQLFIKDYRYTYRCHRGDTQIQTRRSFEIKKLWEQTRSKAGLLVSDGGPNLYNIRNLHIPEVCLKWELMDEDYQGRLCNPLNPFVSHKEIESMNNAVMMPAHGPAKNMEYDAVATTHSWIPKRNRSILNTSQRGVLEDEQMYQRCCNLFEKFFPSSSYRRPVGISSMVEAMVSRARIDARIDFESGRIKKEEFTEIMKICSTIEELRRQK
UniProt P03466: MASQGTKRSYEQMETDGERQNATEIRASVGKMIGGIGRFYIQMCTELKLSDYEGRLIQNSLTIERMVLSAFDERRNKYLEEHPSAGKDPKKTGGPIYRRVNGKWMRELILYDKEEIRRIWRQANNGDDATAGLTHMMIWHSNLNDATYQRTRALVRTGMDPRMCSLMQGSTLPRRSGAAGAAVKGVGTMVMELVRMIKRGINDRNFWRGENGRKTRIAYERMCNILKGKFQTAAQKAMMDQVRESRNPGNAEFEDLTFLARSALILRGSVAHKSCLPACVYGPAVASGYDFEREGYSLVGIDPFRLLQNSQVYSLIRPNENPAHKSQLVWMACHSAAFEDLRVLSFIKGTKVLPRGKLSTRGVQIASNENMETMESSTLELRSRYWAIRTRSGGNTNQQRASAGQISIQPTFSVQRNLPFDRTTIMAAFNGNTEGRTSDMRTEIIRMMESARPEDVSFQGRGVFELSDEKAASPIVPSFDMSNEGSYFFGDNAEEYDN
UniProt P03430: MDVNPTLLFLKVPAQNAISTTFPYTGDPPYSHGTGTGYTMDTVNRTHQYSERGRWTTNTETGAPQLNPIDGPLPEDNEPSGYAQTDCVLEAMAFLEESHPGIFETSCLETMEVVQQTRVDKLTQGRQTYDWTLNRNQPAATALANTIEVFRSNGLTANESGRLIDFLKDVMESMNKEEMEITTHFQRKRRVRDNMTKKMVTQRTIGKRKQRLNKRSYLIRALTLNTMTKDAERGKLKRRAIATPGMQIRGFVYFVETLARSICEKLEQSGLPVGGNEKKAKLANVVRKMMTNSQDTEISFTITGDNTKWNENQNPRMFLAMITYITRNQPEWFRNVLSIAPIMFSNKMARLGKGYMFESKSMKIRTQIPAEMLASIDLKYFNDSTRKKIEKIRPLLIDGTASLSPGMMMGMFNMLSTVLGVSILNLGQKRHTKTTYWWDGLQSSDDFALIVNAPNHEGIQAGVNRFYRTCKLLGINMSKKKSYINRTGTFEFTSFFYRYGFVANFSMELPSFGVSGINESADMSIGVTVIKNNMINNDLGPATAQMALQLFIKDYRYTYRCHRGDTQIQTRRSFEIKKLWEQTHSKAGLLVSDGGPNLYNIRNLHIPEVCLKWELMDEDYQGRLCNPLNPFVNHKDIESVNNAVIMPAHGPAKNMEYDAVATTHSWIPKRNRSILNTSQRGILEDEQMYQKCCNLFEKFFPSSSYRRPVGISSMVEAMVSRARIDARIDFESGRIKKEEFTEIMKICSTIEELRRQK
UniProt Q13049: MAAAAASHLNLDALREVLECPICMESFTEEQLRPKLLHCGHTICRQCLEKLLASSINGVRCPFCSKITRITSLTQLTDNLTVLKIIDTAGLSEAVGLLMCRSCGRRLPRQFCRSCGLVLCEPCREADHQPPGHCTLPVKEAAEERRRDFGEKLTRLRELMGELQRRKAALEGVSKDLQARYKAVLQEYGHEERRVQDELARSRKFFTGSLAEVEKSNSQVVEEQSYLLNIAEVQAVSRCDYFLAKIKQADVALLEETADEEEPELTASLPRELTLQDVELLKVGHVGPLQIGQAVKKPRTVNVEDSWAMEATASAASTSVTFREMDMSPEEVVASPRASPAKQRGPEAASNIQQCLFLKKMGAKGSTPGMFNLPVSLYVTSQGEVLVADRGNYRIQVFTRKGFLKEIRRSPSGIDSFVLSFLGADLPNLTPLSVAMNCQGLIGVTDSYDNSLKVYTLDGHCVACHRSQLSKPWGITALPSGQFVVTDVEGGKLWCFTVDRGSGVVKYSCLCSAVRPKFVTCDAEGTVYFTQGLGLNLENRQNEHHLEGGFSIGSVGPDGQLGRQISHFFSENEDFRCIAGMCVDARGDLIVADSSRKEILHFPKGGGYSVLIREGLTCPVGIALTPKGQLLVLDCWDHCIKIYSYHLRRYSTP

TRIM32 CC-containing segment (residues 140-265) tagged with GFP (from UniProt Q13049 140-265) (domain or fragment)
binding [1]: binds
binding [2]: binds

TRIM32 fused with HA epitope (from UniProt Q13049 1-653)
binding [1]: binds
binding [3]: no binding

TRIM32-GFP (from UniProt Q13049 1-653)
binding [1]: binds
binding [4]: binds

V5-TRIM32 (from UniProt Q13049 1-653)
binding [2]: binds

endogenous TRIM32 (tripartite motif-containing protein 32) (from UniProt Q13049 1-653)
binding [5]: binds

Reference: publication PMC4461266
